# Results as given in the BET-seq Pho4 binding data (Le et al. 2018).
# This is one part of the list. These are noisy estimates, calculated here from bound and input reads.
# Target: T1, Pho4 (S. cerevisiae) (UniProt P07270)
# T1 sequence: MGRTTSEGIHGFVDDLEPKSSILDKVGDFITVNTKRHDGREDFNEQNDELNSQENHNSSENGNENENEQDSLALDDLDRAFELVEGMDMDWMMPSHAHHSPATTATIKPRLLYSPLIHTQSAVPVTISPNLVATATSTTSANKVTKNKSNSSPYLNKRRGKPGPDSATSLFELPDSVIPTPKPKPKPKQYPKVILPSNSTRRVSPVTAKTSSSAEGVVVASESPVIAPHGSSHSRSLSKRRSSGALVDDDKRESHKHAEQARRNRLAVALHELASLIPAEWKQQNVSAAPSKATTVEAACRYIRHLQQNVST
# Assay: relative binding free energy (BET-seq); higher = weaker binding
# Conditions: reference: library average
row,Sequence,relative binding free energy [kcal/mol]
1,CTGGGCACGTGAGTTA,0.11
2,AGGTACACGTGCGTGG,0.03
3,TTTATCACGTGCGGTT,0.03
4,ATTTACACGTGGTCTG,-0.02
5,CATAGCACGTGGGGAT,-0.17
6,AGAGGCACGTGGAGTC,0.04
7,AAGGCCACGTGGTGGT,-0.08
8,GTGTGCACGTGTGGCT,0.13
9,GGGAACACGTGTGGAA,0.22
10,GCCGGCACGTGGTGGC,-0.11
11,CGTAACACGTGTATGG,0
12,GTTGACACGTGTGCGG,0.06
13,AGAGGCACGTGTTCTT,-0.11
14,TTAGTCACGTGAGGCG,0.1
15,ATGATCACGTGGTTGG,0.14
16,TAACTCACGTGGTTTG,0.18
17,GGAAGCACGTGGGGCA,-0.19
18,TAGTGCACGTGGTATT,-0.11
19,AATTACACGTGTTTGG,0.14
20,ATTTTCACGTGGAGCT,0.28
21,TTAAGCACGTGTGGCA,0.06
22,ATATTCACGTGGCATG,0.15
23,AGGTTCACGTGAGCAT,0.47
24,AATGTCACGTGTATAG,0.04
25,ATAAGCACGTGTGATG,0.04
26,TCTCGCACGTGAGGTG,0.26

row,Sequence,relative binding free energy [kcal/mol]
1,AGAAGCACGTGTTAGG,0.02
2,TTTCACACGTGAGTTT,0.28
3,AATGTCACGTGCAGGT,-0.09
4,ATGGTCACGTGTTAGT,0.09
5,AGTGACACGTGGGTGG,-0.14
6,TAAGTCACGTGAGTTA,0.24
7,TTGTACACGTGCGTTT,0.08
8,TTGTGCACGTGGGCGC,-0.12
9,CATAGCACGTGGAGTA,0.09
10,AGGGGCACGTGATGGT,0
11,ATCTGCACGTGGGATG,-0.26
12,TGGAGCACGTGGTTGT,-0.14
13,GTATGCACGTGCATTT,-0.1
14,GTTATCACGTGCGGTA,0.15
15,TTTATCACGTGCGTGC,0.21
16,AGTGGCACGTGTGTGA,-0.12
17,TGGGACACGTGTTGGG,0.11
18,GGGTACACGTGGTTTC,0.03
19,GGTTTCACGTGCTGGA,0.2
20,TATTTCACGTGCATGT,0.17
21,TCAGTCACGTGATTTT,0.13
22,TGTGACACGTGTAGGC,0.08
23,GTATGCACGTGTGTTA,0.02
24,GGGAACACGTGGCAGG,-0.05
25,AGTACCACGTGTTTTG,-0.02
26,GCGTGCACGTGGCAGT,-0.15

row,Sequence,relative binding free energy [kcal/mol]
1,GCTATCACGTGTGGGG,0.16
2,CAAGTCACGTGGGGCG,-0.12
3,GTAGTCACGTGAGTCG,0.31
4,TTTGGCACGTGCGTAA,-0.18
5,TGGTGCACGTGCCTTG,-0.11
6,TTCTACACGTGCGGTA,0.21
7,TCATTCACGTGGTCGG,0.43
8,ATGGTCACGTGGGCAA,-0.08
9,CCTTGCACGTGTGGTT,-0.06
10,TGGTTCACGTGAGATA,0.36
11,TTGGGCACGTGTGCAA,-0.2
12,TGGAGCACGTGGTAAT,-0.1
13,TAGTACACGTGTCATT,0.07
14,AATGACACGTGTCTTG,0.03
15,TGTAGCACGTGAATCG,0.24
16,ATCGTCACGTGGGTTC,-0.02
17,GTTTACACGTGCTCGG,0.1
18,TTTTTCACGTGGTGAA,0.39
19,ATGAGCACGTGGGTGT,-0.25
20,AGTGCCACGTGATTGA,0.04
21,TGGGGCACGTGGACCA,-0.07
22,TTTGACACGTGGGGAG,-0.08
23,AGGTACACGTGTCGGG,0.13
24,ATATACACGTGGGGTT,-0.12
25,TGCATCACGTGCGGTG,0.14
26,GTGTGCACGTGTGAGA,0.13

row,Sequence,relative binding free energy [kcal/mol]
1,AAGTGCACGTGGGACG,-0.11
2,GTTGTCACGTGTAGTC,0.18
3,CGGGTCACGTGATTGG,0.16
4,CAGTGCACGTGTGGAG,0
5,GTGATCACGTGATAAG,0.25
6,GGGGGCACGTGCTAGG,-0.27
7,TGAGTCACGTGGGGTT,0.05
8,ACTGGCACGTGAGTAT,0.19
9,GGCTTCACGTGATGCT,0.38
10,AGCCTCACGTGGGGGT,-0.07
11,GGCATCACGTGGGTTA,0.06
12,CTGTGCACGTGTGTAC,0.09
13,CGCGTCACGTGGCGTG,0.03
14,GGGTGCACGTGCAATG,0.06
15,CTGGACACGTGGCGTG,-0.16
16,TGTGGCACGTGTGTGT,-0.03
17,CAGGGCACGTGTCGGG,-0.04
18,CGGTGCACGTGGGCTG,-0.08
19,TGTGTCACGTGTACCG,0.08
20,TAATACACGTGGGGCG,-0.11
21,GCTAGCACGTGTGTAT,0.07
22,TGTGACACGTGGCGAG,-0.12
23,TGCCTCACGTGAGTGG,0.32
24,TATGACACGTGACGTT,0.24
25,GAGGTCACGTGTGCCG,0.31
26,GGTAACACGTGGTTTG,0.14

row,Sequence,relative binding free energy [kcal/mol]
1,CAGTACACGTGGTGTG,0.02
2,ATAGCCACGTGTAGTT,-0.06
3,GAGGTCACGTGTGGAG,0.27
4,TGTTGCACGTGGTAAA,-0.02
5,GGATTCACGTGATTTT,0.54
6,CAGAACACGTGTGTGG,-0.02
7,AAGGGCACGTGAAGGG,0.23
8,AATTACACGTGGCGTG,-0.01
9,GTCGGCACGTGAGGCG,0.14
10,TTTGACACGTGCCTGT,-0.14
11,CGCGTCACGTGTGTGT,0.12
12,GGGGTCACGTGGGGAC,0.04
13,ACGTGCACGTGTTAGA,-0.06
14,TAAATCACGTGTATAG,0.12
15,AATTGCACGTGAGGAG,0.09
16,CTTAGCACGTGTAATT,0.11
17,AACGTCACGTGGTGTA,-0.01
18,GGGGCCACGTGTAGTA,0.01
19,ATCATCACGTGTTATT,0.1
20,TATTCCACGTGGATGG,0.03
21,AGTGACACGTGGGTGA,-0.11
22,GCGGGCACGTGGGAAT,-0.19
23,CAGTTCACGTGTAGTA,0.22
24,AGTGACACGTGACGTG,0.13
25,AATATCACGTGTTGAT,0.12
26,TGATACACGTGGAGAG,0.03

row,Sequence,relative binding free energy [kcal/mol]
1,TGATGCACGTGCGATG,0.09
2,TTTAACACGTGAAGTG,0.3
3,GTTAGCACGTGTTCAT,-0.07
4,GGTGACACGTGTGCAT,0.06
5,GTCTTCACGTGGTGTA,0.01
6,ATGTCCACGTGTGAGT,0.02
7,TGACTCACGTGGTGAG,0.21
8,CAGGTCACGTGGTAAG,0.04
9,AGGGACACGTGCGGGT,-0.06
10,TCGTTCACGTGCGGGG,0.27
11,TAGTACACGTGTAGCG,0.05
12,GCATGCACGTGGGGGT,-0.18
13,GCTGACACGTGGTGGT,-0.08
14,GGGAGCACGTGTGAAG,0.09
15,TGTAGCACGTGAGAAT,0.13
16,AAGAGCACGTGGTGGG,-0.13
17,TTCTACACGTGTTGTA,0.08
18,ATTTTCACGTGGATAA,0.18
19,GGATACACGTGTTGAG,0.06
20,TTTCGCACGTGTTAAG,0.01
21,TGGATCACGTGGATGA,0.15
22,TCTGGCACGTGTTTCG,-0.05
23,GTTGGCACGTGTGCGA,-0.06
24,CGGGGCACGTGGTACG,-0.25
25,GAAGTCACGTGTTGGG,0.21
26,CGTTTCACGTGGTTGG,0.18

row,Sequence,relative binding free energy [kcal/mol]
1,TGCGGCACGTGAGAGG,0.18
2,TATTACACGTGCGTTT,0.08
3,GTGCTCACGTGGTAGG,0.27
4,GCGTGCACGTGTTATG,0.04
5,TAAGACACGTGGGATG,-0.15
6,TTGGTCACGTGGCGTG,0.01
7,ATAATCACGTGGGGTG,-0.02
8,TCGTTCACGTGAAGTT,0.4
9,GGGATCACGTGGGCAT,0.13
10,TTTGGCACGTGCTGCG,-0.25
11,ATTAGCACGTGGGTCA,-0.27
12,TGGGGCACGTGCCAGT,-0.19
13,ATATACACGTGTTTAG,-0.16
14,TTGTGCACGTGGGGTT,-0.08
15,TGATTCACGTGGTCAT,0.22
16,AGGGTCACGTGAGTGA,0.31
17,TGGTACACGTGGCGTA,-0.16
18,AGAGACACGTGGTATG,-0.12
19,TGTTACACGTGCCGGG,-0.09
20,GTGGTCACGTGGACGT,0.16
21,ATTAGCACGTGAGGTG,0.13
22,ATTATCACGTGTGTAG,0.12
23,TTGACCACGTGGGGTG,-0.26
24,AGTGACACGTGGTTCG,0
25,GGTATCACGTGTAAAG,0.29
26,GGGAGCACGTGGGGAT,-0.02

row,Sequence,relative binding free energy [kcal/mol]
1,TGGTACACGTGTACGG,-0.04
2,TTTGGCACGTGGATGA,0.04
3,TAGTTCACGTGTTTTA,0.21
4,TTGCTCACGTGAGTAA,0.45
5,GGGTGCACGTGAAATT,0.22
6,TCGGGCACGTGTATAG,-0.09
7,ACTTGCACGTGTGGGA,0.08
8,GGGTTCACGTGAGCTT,0.5
9,TTTGTCACGTGCATAT,0.1
10,AAGGGCACGTGACTGG,-0.1
11,GGGATCACGTGTTATA,0.03
12,TTTTTCACGTGTACAA,0.18
13,CGTGTCACGTGATGGT,0.34
14,AATGGCACGTGTGGGG,0.02
15,GTTTGCACGTGTAATG,0.25
16,ACTTGCACGTGTGGTC,0.11
17,TAGCGCACGTGGGCGG,-0.27
18,GTGCTCACGTGCTGTG,0.22
19,AATTTCACGTGGCTTT,0.2
20,GGGCACACGTGTCGTG,0.07
21,TGGACCACGTGGGGAG,-0.05
22,ACTGGCACGTGTTTGT,-0.26
23,AGAGGCACGTGCTAGT,-0.15
24,GTTCCCACGTGGGGTT,-0.09
25,TCTGTCACGTGGAGGG,0.1
26,GGACTCACGTGAGGGG,0.4

row,Sequence,relative binding free energy [kcal/mol]
1,TGTAGCACGTGCTTGA,-0.17
2,GAGAACACGTGTGTTT,0.01
3,AGCTGCACGTGTTAGG,0
4,GAATGCACGTGGGTAG,-0.03
5,GCTGACACGTGAGGGG,0.24
6,ATGCTCACGTGTGTAT,0.13
7,GTTATCACGTGTGATC,0.38
8,TCGGGCACGTGAAGGA,0.11
9,GACGGCACGTGCGGGT,0.02
10,TATTTCACGTGTGACA,0.31
11,TTTTACACGTGTTTGC,0.03
12,TGTATCACGTGTTGCG,0.14
13,AATCACACGTGTGTGT,0.1
14,TTGTACACGTGGCGAA,0.02
15,AAACTCACGTGTTTGT,0.12
16,TTTGTCACGTGGTGAA,0.01
17,GAATACACGTGTCGGT,0.12
18,TATTTCACGTGGTTTA,0.25
19,GTATGCACGTGTTCTT,0.03
20,TGGTGCACGTGTCGGC,0.04
21,GAGCACACGTGGTGTT,0.1
22,TGGTTCACGTGTGCGA,0.36
